The campaign covered roughly 310,000 compounds. About 18,000 (5.8%) were called active. The inconclusive results got no clear call from the source; some entries with a clear call stand among them for comparison. Calls come from the whole dose curve; as a rule, active = well fitted inhibition curve with a large enough effect; inconclusive = small, poorly fitted or top-dose-only effect, or another doubt; inactive = no such curve, though single readings can be large or run the other way. Potencies of inconclusive entries are left out as doubtful fits.
Experiment: Primary qHTS for delayed death inhibitors of the malarial parasite plastid, 48 hour incubation
Conditions: P. falciparum luciferase growth in erythrocytes; series mostly up to 28.7 µM
Method in brief: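 Erythrocytes infected with P. falciparum carrying an integrated firefly luciferase reporter (2% hematocrit, 0.1% parasitemia final) were exposed to compounds in RPMI 1640 with 0.5% Albumax at 37 C, 5% CO2. Growth inhibition was scored as reduced luminescence.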
In the case of `CC(NC(=O)/C(=C\c1cccc([N+](=O)[O-])c1)NC(=O)c1ccco1)C(=O)O` (stereo not drawn), the Potency is reported as inconclusive [inhibitor, partial curve, poor fit]. For `CC(=O)Nc1ccc(SC[C@H](Cc2ccccc2)N2CC[C@@H](O)CCC2=O)cc1`, the Potency was “inactive”. In the case of `O=C(c1ccc(Cl)cc1)C1CCN(CC(=O)N2CCCCC2)CC1`, the Potency is reported as inconclusive [inhibitor, partial curve, poor fit]. With `Cc1ccc(NC(=O)CCn2c(=O)c3cccn3c3ccccc32)cc1C` the Potency was inconclusive [inhibitor, single point]. With `COc1ccccc1C(=O)Nc1ccc(S(=O)(=O)NC2=NCCCCC2)cc1` the Potency was “inactive”. In the case of `CSCCC(NC(=O)COc1ccccc1)C(=O)N1CCCC(C)C1` (stereo not drawn), the Potency is reported as “inactive”. In the case of `CCC(=O)N1N=C(c2ccccc2)CC1c1ccccc1` (stereo not drawn), the Potency is reported as inconclusive [inhibitor, full curve]. In the case of `CCC1CCCCN1Cc1ccc(CNS(=O)(=O)c2ccc3c(c2)oc(=O)n3C)o1` (stereo not drawn), the Potency is reported as inconclusive [inhibitor, single point]. In the case of `O=C(NCc1ccccc1CN1CCCC1)c1ccc(OCc2cscn2)cc1`, the Potency is reported as inconclusive [inhibitor, partial curve, poor fit]. In the case of `CCc1noc(C)c1C(=O)Nc1nc2c(C)cc(C)cc2s1`, the Potency is reported as “inactive”. With `Fc1cc2nc(-c3ccncc3)[nH]c2cc1F` the Potency was inconclusive [inhibitor, single point]. For `CC(=O)n1cc([C@H]2C=C(C(=O)NCc3ccccc3)O[C@@H](OCCCCO)C2)c2ccccc21`, the Potency was active: 5.86 µM. With `COc1ccc(N2C(=O)NC(NC(=O)c3cccnc3)(C(F)(F)F)C2=O)cc1` (stereo not drawn) the Potency was “inactive”. For `CCN1CCN(Cc2c(O)ccc3c(=O)c(-c4ccccc4OC)coc23)CC1`, the Potency was inconclusive [inhibitor, single point]. For `C/C(=N\Nc1ccc(S(=O)(=O)Nc2ccc(Cl)cc2)cc1[N+](=O)[O-])c1ccc(N2CCOCC2)cc1`, the Potency was inconclusive [inhibitor, partial curve]. For `CCOC(=O)N1CCN(c2c(NCCCN(CC)Cc3ccccc3)c(=O)c2=O)CC1`, the Potency was inconclusive [inhibitor, partial curve, poor fit]. In the case of `O=C(COc1ccccc1Cl)Nc1ccc2oc(=O)ccc2c1`, the Potency is reported as “inactive”. In the case of `CN1CCN(C(=O)c2ccc(-c3ccccc3)cc2)CC1`, the Potency is reported as “inactive”. For `S=C(NCc1ccccc1)Nc1cccc2ccccc12`, the Potency was inconclusive [inhibitor, single point]. With `O=C(C1CCC(=O)N(C2CC2)C1)N1CCC(Oc2cccc(C(F)(F)F)c2)CC1` (stereo not drawn) the Potency was inconclusive [inhibitor, partial curve, poor fit]. With `CCN(CC)CCCNC(=O)c1cn(C)c2ccc(S(=O)(=O)N(C)C3CCCCC3)cc2c1=O` the Potency was inconclusive [inhibitor, single point]. For `CC(=O)Nc1cccc(NC(=O)CCN2C(=O)c3ccccc3S2(=O)=O)c1`, the Potency was “inactive”. For `O=C(CSc1nnc(CNc2ccc(F)cc2)n1Cc1ccccc1)NCc1ccccc1`, the Potency was inconclusive [inhibitor, single point]. With `O=C(Nc1c(C(=O)Nc2ccc3c(c2)OCCO3)cnn1-c1ccccc1Cl)c1ccco1` the Potency was “inactive”. For `CN1CCCN(S(=O)(=O)c2ccc(Cl)c(Cl)c2)CC1`, the Potency was “inactive”. With `O=C(O)C1CC1(c1ccccc1)c1ccccc1` (stereo not drawn) the Potency was inconclusive [inhibitor, single point]. In the case of `COc1ccc(NC2=NCC(=O)N2c2ccccc2F)cc1`, the Potency is reported as “inactive”. In the case of `Cc1cc(C(=O)COC(=O)c2cc(O)c3ccccc3c2O)c(C)n1CC1CCCO1` (stereo not drawn), the Potency is reported as inconclusive [inhibitor, single point]. In the case of `CCCC(C(=O)NC1CCCC1)N(Cc1ccc(F)cc1)C(=O)c1snc(C(N)=O)c1N` (stereo not drawn), the Potency is reported as inconclusive [inhibitor, partial curve]. With `COc1ccc(CNC(=O)CCNC(=O)c2ccc(C(C)(C)C)cc2)cc1OC` the Potency was “inactive”. For `COc1ccccc1-n1c(-c2ccc(C)cc2)nc2ccccc2c1=O`, the Potency was inconclusive [inhibitor, partial curve]. In the case of `CCN(Cc1cccs1)C(=O)CN1C(=O)NC(c2ccccc2)(c2ccccc2)C1=O`, the Potency is reported as inconclusive [inhibitor, partial curve, poor fit]. In the case of `CCOC(=O)c1cc2c(ccn2-c2ccc(F)cc2)n1CC(=O)N1CCN(C(=O)c2ccco2)CC1`, the Potency is reported as inconclusive [inhibitor, partial curve, poor fit]. In the case of `COc1ccc(-c2csc(N3CCN(S(=O)(=O)c4ccc5c(c4)NC(=O)CO5)CC3)n2)cc1`, the Potency is reported as active: 8.28 µM. In the case of `CC(=O)c1ccc(S(=O)(=O)NCCC(=O)OCC(=O)NCCc2ccccc2)cc1`, the Potency is reported as “inactive”. In the case of `COc1ccc(-c2ccc(SCC(=O)Nc3cccc(C(C)=O)c3)nn2)cc1OC`, the Potency is reported as inconclusive [inhibitor, single point]. In the case of `CCn1c(NCCCO)nc2c(c1=O)C(C)(CC)Cc1ccccc1-2` (stereo not drawn), the Potency is reported as inconclusive [inhibitor, partial curve, poor fit]. In the case of `Cc1ccccc1Nc1nc(-c2sc(NC(=O)c3cccc(Cl)c3)nc2C)cs1`, the Potency is reported as inconclusive [inhibitor, partial curve, poor fit]. In the case of `CCCCc1cc(=O)oc2c(CN(C)C)c(O)ccc12`, the Potency is reported as inconclusive [inhibitor, single point]. For `CCN(CC)S(=O)(=O)N1CCC(C(=O)NC2CCCc3ccccc32)CC1` (stereo not drawn), the Potency was inconclusive [inhibitor, single point]. With `CCOc1ccc(-c2nnc(NC(=O)CCCOc3cccc(C)c3)o2)cc1` the Potency was “inactive”. In the case of `COc1cc(/C=N/NC(N)=O)ccc1OCC(=O)Nc1cc(C)c(C)cc1Br`, the Potency is reported as “inactive”. In the case of `CCCCc1ccc(NC(=S)Nc2ccc(Nc3ccc(OC)cc3)cc2)cc1`, the Potency is reported as “inactive”. For `CCN(C(=O)c1cc2c(=O)n3cccc(C)c3nc2n1CCCOC)C1CCCCC1`, the Potency was inconclusive [inhibitor, single point]. With `CCn1cc(C(=O)NC(=S)Nc2ccccc2Br)cn1` the Potency was “inactive”. With `N#Cc1c(/N=C/c2ccco2)sc2c1CCC2` the Potency was inconclusive [inhibitor, partial curve]. With `CC1Cc2cc(S(=O)(=O)NCCC(=O)N(C)Cc3ccccc3)ccc2N1C(=O)C1CC1` (stereo not drawn) the Potency was inconclusive [inhibitor, partial curve, poor fit]. For `Cc1cccc(-n2c(O)c(C=Nc3cc(O)ccc3C)c3ccccc3c2=O)n1`, the Potency was inconclusive [inhibitor, single point]. In the case of `Cc1ccc(CNc2cnn(C34CC5CC(CC(C5)C3)C4)c(=O)c2Cl)cc1`, the Potency is reported as “inactive”. With `CN(C)c1ccc(C(=O)c2ccc(N(C)C)c3ccccc23)cc1` the Potency was inconclusive [inhibitor, single point]. For `O=C(Cc1ccccc1Cl)Nc1cc(S(=O)(=O)N2CCOCC2)ccc1N1CCOCC1`, the Potency was inconclusive [inhibitor, partial curve]. In the case of `O=C(c1cc(S(=O)(=O)N2CCOCC2)ccc1Cl)N1CCOCC1`, the Potency is reported as “inactive”. For `COc1cccc(CC(=O)OC(C)C(=O)Nc2ccc(Cl)cn2)c1` (stereo not drawn), the Potency was inconclusive [inhibitor, single point]. In the case of `COc1ccc(-c2cc(C(F)(F)F)nc(SCCC(=O)NCc3ccccc3)n2)cc1`, the Potency is reported as active: 14.7 µM. In the case of `COc1ccc([C@H]2CC(=O)C=C(c3cccc(OC)c3OC)C2)cc1OC`, the Potency is reported as inconclusive [inhibitor, partial curve, poor fit]. In the case of `Cc1ccc(Nc2nc(N)c([N+](=O)[O-])c(N3CCCC(C)C3)n2)cc1C` (stereo not drawn), the Potency is reported as inconclusive [inhibitor, single point]. With `C/C=C/C(=O)Nc1cccc(C2=NOC3(C2)C[C@@H](C(N)=O)N(C(=O)c2cc([N+](=O)[O-])cc([N+](=O)[O-])c2)C3)c1` (stereo partly drawn) the Potency was inconclusive [inhibitor, single point]. For `Cc1cc(C)cc(N(C(=O)c2snc(C(N)=O)c2N)C(C(=O)NCC2CCCO2)c2ccc(C)o2)c1` (stereo not drawn), the Potency was inconclusive [inhibitor, single point]. For `O=[N+]([O-])c1nn(-c2ccccc2)n(O)c1=NCc1ccc2c(c1)OCO2`, the Potency was “inactive”. In the case of `CCC(=O)Nc1ccc(NCc2ccc(-c3ccccc3)cc2)cc1`, the Potency is reported as “inactive”. In the case of `N#CCCN/N=C(/Cc1nc2ccccc2[nH]1)c1cccc(Cl)c1`, the Potency is reported as active: 10.4 µM. For `O=C(CCS(=O)(=O)c1ccc(Cl)cc1)Nc1nnc(-c2ccco2)o1`, the Potency was “inactive”. For `N#C/C(=C/c1ccc(-c2ccc(S(N)(=O)=O)cc2)o1)c1nc2ccccc2s1`, the Potency was “inactive”. In the case of `COC(=O)c1ccc(Cn2nnc3c(=O)[nH]c(C4CCCN(S(=O)(=O)c5ccc(C)cc5)C4)nc32)cc1` (stereo not drawn), the Potency is reported as inconclusive [inhibitor, full curve]. With `Oc1cccc2nc3ccccc3nc12` the Potency was inconclusive [inhibitor, single point]. With `CN(CC1CCOCC1)C(=O)CC1C(=O)NCCN1CC(c1ccccc1)c1ccccc1` (stereo not drawn) the Potency was inconclusive [inhibitor, partial curve, poor fit]. In the case of `Nc1cc2nc3ccccc3oc-2cc1=O`, the Potency is reported as active: 4.65 µM. With `CC(=O)Nc1c([N+](=O)[O-])cc(C)c(Cl)c1[N+](=O)[O-]` the Potency was inconclusive [inhibitor, partial curve, poor fit].

From PubChem BioAssay AID504832 (National Center for Advancing Translational Sciences (NCATS), 2011)
Potency is the fitted concentration of half-maximal effect; tags give direction and shape of the fitted curve.
